Reference: PubChem BioAssay AID488969 (Vanderbilt High Throughput Screening Facility, 2010)
In all, about 110,000 compounds were measured (“z-score”: median about -0.1, highest 2% from about 2 on). Some of the results follow.

Each molecule was assayed against Metabotropic glutamate receptor 8 (Rattus norvegicus) (UniProt P70579) (assay: mGluR8 Gi/Go-coupled signaling modulation – cell-based, rat, thallium flux, HTS, primary screen (AID 488969)). Conditions: HEK293 rat mGluR8, GIRK (G protein-gated inwardly rectifying potassium channel) thallium flux, FluoZin2; at 10 µM; stronger effect = higher value; submaximal glutamate (EC20) added with thallium.
Sequence of UniProt P70579 (P70579 whole entry, looked up): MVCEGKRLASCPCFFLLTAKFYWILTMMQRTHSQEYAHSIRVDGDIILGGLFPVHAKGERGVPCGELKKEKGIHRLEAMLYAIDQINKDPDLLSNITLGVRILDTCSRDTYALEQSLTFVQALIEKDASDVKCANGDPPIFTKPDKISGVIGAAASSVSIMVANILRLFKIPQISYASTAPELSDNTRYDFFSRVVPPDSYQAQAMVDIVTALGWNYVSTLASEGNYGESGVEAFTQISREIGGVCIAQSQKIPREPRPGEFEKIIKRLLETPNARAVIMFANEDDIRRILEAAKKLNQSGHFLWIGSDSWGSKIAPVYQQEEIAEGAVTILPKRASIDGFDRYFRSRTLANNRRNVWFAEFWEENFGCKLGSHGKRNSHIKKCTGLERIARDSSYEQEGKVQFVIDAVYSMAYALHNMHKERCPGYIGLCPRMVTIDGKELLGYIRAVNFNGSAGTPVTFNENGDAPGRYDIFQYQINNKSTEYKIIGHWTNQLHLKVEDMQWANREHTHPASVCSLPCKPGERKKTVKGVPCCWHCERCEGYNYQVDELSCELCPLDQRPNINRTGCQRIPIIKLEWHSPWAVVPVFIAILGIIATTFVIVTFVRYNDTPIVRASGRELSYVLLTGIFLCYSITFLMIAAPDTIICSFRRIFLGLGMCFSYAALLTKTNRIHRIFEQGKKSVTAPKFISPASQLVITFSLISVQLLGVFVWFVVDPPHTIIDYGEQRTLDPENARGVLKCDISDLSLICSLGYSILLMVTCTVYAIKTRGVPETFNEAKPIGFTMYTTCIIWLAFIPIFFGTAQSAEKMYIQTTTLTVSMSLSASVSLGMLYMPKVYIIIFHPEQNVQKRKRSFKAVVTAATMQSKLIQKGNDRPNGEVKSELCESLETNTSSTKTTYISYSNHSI

Compound | z-score
CC(C)(C)NC(=O)NC(=O)COC(=O)c1ccc(OC(F)(F)F)cc1 | -0.17
CC1=C(C(=O)OC(C)C)C(c2ccc(Br)s2)NC(=O)N1 (stereo unspecified) | 0.0825
CCOC(=O)C1CCN(S(=O)(=O)Cc2ccc(Cl)cc2)CC1 | -0.135
O=S(=O)(NC1=NCCC1)c1ccc(F)cc1 | -0.444
O=S(=O)(Nc1cccc(-c2cn3cccnc3n2)c1)c1ccc(F)cc1 | 0.0648
O=C(NCc1ccco1)/C(=C/c1cccnc1)NC(=O)c1cccc(Br)c1 | -0.00332
Clc1ccc2oc(-c3cccnc3NCc3ccccc3)nc2c1 | 0.164
CCOC(=O)c1c(-c2cccc3ccccc23)csc1NC(=O)C1C2CCC(O2)C1C(=O)O (stereo unspecified) | -0.499
Cc1cc(C)n(-c2ccc(C(=O)OCc3ccccc3)cc2)n1 | -1.03
Cc1cc(C)n(CC(=O)c2ccc(Br)cc2)c(=O)c1C#N | -0.298
CCn1c(COc2ccccc2)nnc1SCC(=O)Nc1cc(C)ccc1OC | -0.562
CC(=O)Nc1cc(C)c(S(C)(=O)=O)c(C)c1 | 0.104
CC(C)Nc1nnc(SCC(=O)Nc2ccc3c(c2)C(=O)c2ccccc2C3=O)s1 | -0.456
COc1cc(NC(=O)c2ccc(Cl)cc2Cl)ccc1-c1cc2ccccc2oc1=O | -0.00523
COc1ccccc1NC(=O)c1nn(-c2ccccc2)ccc1=O | -0.0727
Cc1cc(C)cc(CC2CC(=O)N(c3ccc4c(c3)OCCO4)C2=O)c1 (stereo unspecified) | -0.0115
Cc1cc(C)cc(C(=O)NCC(=O)OCc2c(C)noc2C)c1 | 1.47
Cn1c(=O)[nH]c(=O)c2c1ncn2CCN1CCOCC1 | -0.0825
Cc1ccc(C(C)C)cc1OCCCCN1CCCC1 | 0.832

Compound | z-score
COc1ccc(C2NC(c3ccc(OC)c(OC)c3OC)C(C)C(=O)C2C)c(OC)c1OC (stereo unspecified) | -0.00134
N/C(=N\OS(=O)(=O)c1cc(Cl)ccc1Cl)c1ccncc1 | -0.52
Cc1ccc(C(C(=O)NC(C)(C)C)N(Cc2cccs2)C(=O)c2csnn2)cc1 (stereo unspecified) | -0.225
Cc1c(S(=O)(=O)N2CCN(c3cccc(C(F)(F)F)c3)CC2)c(=O)n(C)c(=O)n1C | 0.21
CC(C)Cc1nnc(NC(=O)CCC(=O)N2CCOCC2)s1 | 0.362
COCCCNC(=O)c1ccc2c(=O)n(Cc3ccc4c(c3)OCO4)c(=S)[nH]c2c1 | -0.0433
Cc1ccc(S(=O)(=O)N2CCN(c3ccc([N+](=O)[O-])c(NCCN4CCOCC4)c3)CC2)cc1 | 0.104
Cc1c(C#N)c(NC(=O)c2ccccc2)n(Cc2ccccc2)c1C | -0.149
O=c1c2ccccc2ncn1C1CCCCC1 | -0.102
COc1cccc(NC(=O)Cn2c(=O)oc3ccccc32)c1 | 0.18
CC(=O)Nc1ccc(OC/C=C(\C)Cl)cc1 | -0.678
CCc1nnc(NC(=O)C(C)Sc2ccccc2)s1 (stereo unspecified) | 0.00353
Cn1ncc2c(NNC(=O)Cc3ccccc3)ncnc21 | -0.137
CCCc1nc(-c2ccc(-c3ccc(F)cc3)cc2)no1 | 0.218
Cc1cc(C(=O)CSc2nc3ccccc3o2)c(C)n1CC1CCCO1 (stereo unspecified) | -0.415
CCNC(=S)NNC(=O)c1cc(C2CC2)nc2ccccc12 | -0.145
CCOc1cc(-n2nc(C)c(C#N)c2N)nc(SC)n1 | 0.00516
COc1ccc(/C=C2\C(=O)N(c3nc(-c4ccc(Br)cc4)cs3)N=C2c2ccccc2)cc1 | -0.114
COc1ccc2nc(C)cc(N3CC(C)OC(C)C3)c2c1 (stereo unspecified) | -0.169

Compound | z-score
CCCCN(C)C(=O)C1CCC(=O)N(c2cc(OC)c(OC)c(OC)c2)C1c1ccc(OC)cc1 (stereo unspecified) | 0.102
CCOc1cc(C#N)c(NC(=O)c2ccco2)cc1OCC | 0.407
COc1ccc(C(=O)N(Cc2nc(-c3ccc(C)cc3)no2)C2CCCCC2)cc1OC | -0.367
COc1ccc(C)cc1NC(=O)c1ccc(N(C)S(C)(=O)=O)cc1 | 0.563
CC1(C)Cc2c(sc3c2C(=O)N(c2ccccc2)C2=NCCN23)CS1 | -0.646
CC(=O)C1C(c2cccc(F)c2)NC(=O)NC1(O)C(F)(F)F (stereo unspecified) | -0.2
CSc1nnc(CSCc2ccc(Cl)cc2Cl)n1-c1ccccc1 | -0.0778
COc1ccccc1N1CCN(CCOc2c(OC)cccc2OC)CC1 | -0.206
CS(=O)(=O)Nc1ccc(C(=O)NC2CC3CCC2C3)cc1 (stereo unspecified) | -0.309
CC1(C)Oc2nc3ccccc3n2/C1=C\C#N | -0.233
Cc1nn2c3ccccc3nc2n(Cc2ccccc2)c1=O | -0.111
C=CCc1cc(/C=N/NC(=O)CSc2nnc(CCCc3ccc(OC)cc3)o2)cc(OC)c1O | -0.132
CCc1nnc(NC(=O)c2nc3nccc(C)n3n2)s1 | 0.924
CCOc1ccc2nc(NC(=O)CSc3ccc(Cl)cc3)sc2c1 | 0.25
O=C(NCCN1CCOCC1)c1csc2c1CCCCC2 | -0.0192
CCNC(=S)N/N=C(\C)c1ccc(N2CCOCC2)cc1 | 0.245
O=C(O)CCCC(=O)Nc1ccc(C(=O)N2CCCCC2)c(Cl)c1 | -0.358
COC(=O)C1=C(CN2CCN(C)CC2)NC(=O)NC1c1cc(C)ccc1C (stereo unspecified) | 0.795
